In this experiment the target is T1, T7-GST-SKIP-RUN (human) (UniProt Q8IWE5).
T1 sequence: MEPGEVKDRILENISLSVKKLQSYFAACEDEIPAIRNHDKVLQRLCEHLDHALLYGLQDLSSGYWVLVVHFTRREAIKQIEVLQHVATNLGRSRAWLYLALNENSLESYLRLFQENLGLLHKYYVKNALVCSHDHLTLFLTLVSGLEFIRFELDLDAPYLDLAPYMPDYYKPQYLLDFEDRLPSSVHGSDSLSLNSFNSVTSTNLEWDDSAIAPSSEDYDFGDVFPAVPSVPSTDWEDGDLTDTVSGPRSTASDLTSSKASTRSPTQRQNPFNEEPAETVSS
Put plainly: pull-down; glutathione Sepharose 4B beads coupled with T7-GST-SKIP-RUN (affinity-purified from COS-7) incubated 3 hours at 4°C with COS-7 cell lysates containing FLAG-Rab1A(Q70L) and/or an increasing amount of FLAG-Arl8b(Q75L); immunoblotting, band intensity by ImageJ; only the target purified.

Amino acid sequences for entries named in this document (tags omitted). A change or cut given only in a name is not applied to a line headed by its entry.
UniProt P62821: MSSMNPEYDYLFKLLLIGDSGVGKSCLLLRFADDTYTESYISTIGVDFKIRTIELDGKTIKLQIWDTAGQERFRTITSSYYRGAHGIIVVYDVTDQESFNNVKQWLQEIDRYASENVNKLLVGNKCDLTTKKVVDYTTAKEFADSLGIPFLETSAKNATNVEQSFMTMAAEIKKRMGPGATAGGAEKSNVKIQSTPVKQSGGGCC

Results are given in words; binding and its absence hold for the method and conditions named. Binding seen in cells or lysates may run through a third protein. Some entries that bind do so weakly or less than the wild type. Tags and fused reporters may be left off the sequences shown.

In the case of “FLAG-Rab1A(Q70L) (from UniProt P62821 1-205)”, the binding entry is given as “binds”.

Source of the values: publication PMC4316160.
